# Measured values from publication PMC6919601, “Identification of Plasmodium dipeptidyl aminopeptidase allosteric inhibitors by high throughput screening” (PLoS ONE, 2019).
# Among all 110,000 compounds or so, about 230 (0.21%) showed an effect of 50% or more. The list shows a part of the results.
# Target: DPAP1 (Plasmodium falciparum, UniProt Q8IIJ9)
# Test: primary screen, percent inhibition; read by cleavage of a fluorogenic dipeptide substrate; higher = more effect of the substance
# Design: species or system P. falciparum D10 trophozoite lysates; single well
# 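Further: 30 min substrate incubation versus DMSO and 10 µM JCP410 controls.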
# Chain of DPAP1 (Q8IIJ9 whole entry, looked up): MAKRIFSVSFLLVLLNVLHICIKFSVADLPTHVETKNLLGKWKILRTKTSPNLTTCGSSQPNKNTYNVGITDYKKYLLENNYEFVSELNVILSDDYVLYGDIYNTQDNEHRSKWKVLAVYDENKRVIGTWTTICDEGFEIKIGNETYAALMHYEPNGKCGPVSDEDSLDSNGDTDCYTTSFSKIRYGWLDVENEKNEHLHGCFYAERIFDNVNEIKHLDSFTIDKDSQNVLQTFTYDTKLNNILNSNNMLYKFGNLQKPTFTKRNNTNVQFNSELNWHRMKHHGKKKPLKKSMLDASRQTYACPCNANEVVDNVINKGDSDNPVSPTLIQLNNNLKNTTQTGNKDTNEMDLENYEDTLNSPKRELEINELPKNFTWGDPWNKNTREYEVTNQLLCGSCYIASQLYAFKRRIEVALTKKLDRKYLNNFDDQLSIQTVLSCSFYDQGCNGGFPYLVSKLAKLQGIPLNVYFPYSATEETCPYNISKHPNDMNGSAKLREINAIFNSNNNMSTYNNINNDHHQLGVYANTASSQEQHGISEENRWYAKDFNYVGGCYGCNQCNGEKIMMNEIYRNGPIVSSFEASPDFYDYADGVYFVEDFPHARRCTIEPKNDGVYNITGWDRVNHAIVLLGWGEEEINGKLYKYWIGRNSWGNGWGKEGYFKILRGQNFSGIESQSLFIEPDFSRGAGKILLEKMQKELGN
row,Compound,% Inhibition @ 10 uM [%]
1,CCn1c(/C(C#N)=C/c2cccc(O)c2)nc2ccccc21,-2.87
2,COc1ccc(CCNC(=O)Cn2cnc3c(oc4ccccc43)c2=O)cc1OC,0.526
3,COc1ccc2c(c1C)CCC/C2=N\OC(=O)c1ccccc1F,-1.92
4,N#CC1=C(N)Oc2c(c(=O)oc3ccccc23)C1c1cccc(C(F)(F)F)c1 (stereo not shown),-5.96
5,O=C(c1cc(-c2ccc(Cl)s2)nc2ccccc12)N1CCN(c2ncccn2)CC1,4.28
6,C=CCNC(=O)Nc1nc2ccc(OCC)cc2s1,-8.95
7,C=CCn1c(=O)c2c(nc(Br)n2Cc2ccc(Cl)cc2)n(C)c1=O,-3.37
8,COc1cccc(Oc2c(C(F)(F)F)oc3cc(O)ccc3c2=O)c1,0.628
9,CC1CCCC(NC(=O)Cn2ncc3c4ccccc4n(Cc4ccccc4)c3c2=O)C1C (stereo not shown),0.137
10,CCN1C(=O)N/C(=C/c2ccc(-c3ccc(C(=O)O)c(Cl)c3)o2)C1=O,5.09
11,Cc1ccc(S(=O)(=O)/C(C#N)=C/c2c(Oc3ccccc3Cl)nc3ccccn3c2=O)cc1,0.189
12,O=C(CSc1nnc(CNC(=O)c2c(F)cccc2Cl)o1)NCCc1ccccc1,-7.21
13,CC(C)CC(NC(=O)Nc1ccc2ncsc2c1)C(=O)NCC#N (stereo not shown),10.2
14,CCc1c(C)sc(NC(=O)C2CC3CCC2C3)c1C#N (stereo not shown),-1.06
15,CCn1c2ccccc2c2cc(CN3CCN(c4cccc(C(F)(F)F)c4)CC3)ccc21,-0.828
16,CCCc1nc(SC)ncc1C(=O)NCc1cc(OCC)c(OCC)c(OCC)c1,2.42
17,COc1cccc(C2C3=C(O)CCCC3=NC(C)=C2C(=O)Nc2ccc(C)cn2)c1OC (stereo not shown),2.26
18,Cc1ccc(C)c(CN2CCC(CNC(=O)CN3Cc4ccccc4C3=O)CC2)c1,3.87
19,COC(=O)c1nnn(-c2cccc(C)c2C)c1C(=O)OC,-5.27
20,CC(C)CS(=O)(=O)C1=NSC2=NC(=O)/C(=C\c3cccc4ccccc34)C(=N)N21,-3.39
21,CCCCOc1ccc(C2C(C#N)=C(N)Oc3cc(O)ccc32)cc1 (stereo not shown),-2.07

row,Compound,% Inhibition @ 10 uM [%]
1,Clc1cccc(CNc2ncnc3c2cnn3-c2ccccc2)c1,-4.28
2,Cc1ccc(S(=O)(=O)Cc2nc(-c3ccc(C(=O)NCCN4CCOCC4)cc3)oc2C)cc1,-3.84
3,Cc1cccc(C(=O)NCc2cccs2)c1,1.7
4,CCC(CCC(C)C1CCC2C3CC=C4CC(O)CCC4(CO)C3CCC12C)C(C)C (stereo not shown),2.05
5,O=C(CN1CCOCC1)N1CCN(S(=O)(=O)c2ccccc2)C1c1ccccc1 (stereo not shown),-0.169
6,CCOC(=O)C1=C(CNCc2ccccc2)NC(=O)NC1c1ccccc1 (stereo not shown),0.44
7,COc1ccc(/C=C2N=C(/C=C/c3ccc(OC)cc3)OC\2=O)cc1,4.38
8,COc1ccc(CNC(=O)C2CCN(c3nn4c(=O)cc(C)nc4s3)CC2)cc1,-5.63
9,COc1ccc(NC(=O)c2cc3n(n2)C(C(F)(F)F)CC(c2ccc(F)cc2)N3)c(OC)c1 (stereo not shown),-2.29
10,Cc1noc(C(=O)NC(C)(C)C)c1Cl,-3.45
11,Cc1ccc(OCc2nc(-c3ccc(C(=O)N4CCN(C(=O)c5ccco5)CC4)cc3)oc2C)cc1,5.24
12,COCCCNC(=O)CSc1[nH]c(-c2ccccc2)nc1-c1ccccc1,-1.58
13,COc1ccc(-c2nc(CS(=O)CC(=O)NCCc3ccc(Cl)cc3)c(C)o2)cc1 (stereo not shown),-2.85
14,CC(CN1CCCN(C)CC1)c1ccccc1 (stereo not shown),-0.0494
15,COc1ccc(Br)cc1CNC(=O)c1cc(-c2ccccc2O)on1,3.29
16,O=C(c1cccnc1)N1N=C2CCCCCC2C1(O)C(F)(F)F (stereo not shown),-1.79
17,CC1CC(Nc2ccccc2)c2ccccc2N1C(=O)c1ccc(C(C)(C)C)cc1 (stereo not shown),-0.268
18,CS(=O)(=O)N(CC(N)=O)c1cccc2ccccc12,-5.99
19,Clc1cccc(N2CCN(Cc3cccnc3)CC2)c1,6.8
20,Cc1nn(-c2ccccc2)c(-n2cccc2)c1C(=O)N1CCC(C(=O)NCc2ccccn2)CC1,3.2
21,Cc1[nH]c(C)c(C(=O)O)c1CNC1CCCCC1C (stereo not shown),1.41

row,Compound,% Inhibition @ 10 uM [%]
1,Cc1c(C(=O)NC2CCSC2=O)cccc1[N+](=O)[O-] (stereo not shown),0.815
2,CCOc1nc(C)ccc1-c1noc(-c2ccccc2C)n1,6.82
3,CCOc1ccc(CCNC2=NS(=O)(=O)C(c3ccc(C)cc3)=C2C)cc1OCC,2.27
4,Cc1ccc(-c2noc(CSc3nc(O)cc(-c4ccccc4)n3)n2)cc1,-2.53
5,Cc1cc(C)cc(NC(=O)CSc2ncn(-c3ccccc3)n2)c1,0.316
6,Cc1ccc(-c2c3c(=O)n(C)c(=O)n(C)c3cn2C2CCCCCC2)cc1,0.366
7,CCOC(=O)N1CCN(C(=O)C2CCN(c3nn4c(=O)cc(C)nc4s3)CC2)CC1,-3.79
8,CC1=CN2CC(O)CN=C2C=C1 (stereo not shown),-0.197
9,CCCCNC(=O)c1cc(-c2ccc3c(c2)OCO3)nc2ccccc12,2.03
10,COc1ccccc1CNC(=O)CCCn1c(=O)c2cccn2c2cccnc21,2.3
11,Cc1nc2cc(S(=O)(=O)N3CCC(C(=O)NCC4CCCO4)CC3)ccc2n1C1CCCC1 (stereo not shown),-3.53
12,CCOc1cc(C2NC(=O)NC3=C2CCc2ccccc23)ccc1O (stereo not shown),-1.18
13,COCCn1c(SCC(=O)Nc2nc(C)cs2)nc2c(c1=O)SCC2,-1.62
14,COc1ccc(C(=O)NC23CC4CC(CC(C4)C2)C3)cc1OC,3.15
15,CCN(CC)c1ccc(NC(=O)Nc2ccccc2)cc1,-1.37
16,Cc1ccc(-c2nc(CS(=O)(=O)CC(=O)NCCN3CCCC3)c(C)o2)cc1,-1.89
17,O=C(C1=C(O)C(=O)N(CCCn2ccnc2)C1c1ccc(O)cc1)c1ccc2c(c1)OCCO2 (stereo not shown),-5.06
18,CC(=O)Nc1ccc2oc(-c3ccccc3)nc2c1,0.986
19,COC(=O)c1ccc(Cn2cnc3c2c(=O)n(C)c(=O)n3C)cc1,-3.28
